These results are taken from the supplement of paper PMC4967469.

pIC50: −log10 of the molar value. Lines with a small IC50 respond at low doses; a fit beyond the top or the lowest dose is shown as a bound at that dose. AUC sums up the same curve from the lowest dose to the 256-fold higher top dose; it is 1 without any effect and falls as sensitivity rises. A value given as a limit tells only on which side of the number the result lay.

Compound in this assay: FC(F)c1nc2ccccc2n1-c1nc(N2CCOCC2)nc(N2CCOCC2)n1 [ZSTK474]
Nature of the assay: Viability of human cancer cell lines after 72 h of drug (GDSC screen). As to the method:
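Human cancer cell lines in 384-well plates, medium with 10% serum, drug for 72 h over a 256-fold dose range (nine 2-fold or five 4-fold steps up to the top dose). Adherent lines were fixed and stained with the nucleic acid dye Syto60, suspension lines read with resazurin; signal relative to control wells, capped at 0 and 100%. One two-parameter sigmoid per drug and line, fitted in a mixed model over all curves with the slope shared within a line.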

Take “NCI-H1355 (lung adenocarcinoma, adherent, top dose 5.12 µM)”: the AUC worked out at 0.901 and the pIC50 was below 5.29.
On the same counts, the results for “NCI-H1395 (lung adenocarcinoma, adherent, top dose 5.12 µM)” are 0.779 and 5.55.
With “NCI-H1417 (small cell lung carcinoma, suspension, top dose 5.12 µM)”, the AUC amounted to 0.842 and the pIC50 was 5.33.
In the case of “NCI-H1435 (lung adenocarcinoma, semi-adherent, top dose 5.12 µM)”, the AUC worked out at 0.922 and the pIC50 is below 5.29.
As for “NCI-H1436 (small cell lung carcinoma, suspension, top dose 5.12 µM)”, the AUC turned out to be 0.913 and the pIC50 is below 5.29.
Regarding “NCI-H1437 (lung adenocarcinoma, adherent, top dose 5.12 µM)”, the AUC was 0.666 and the negative logarithm of the IC50 (pIC50) was 6.02.
On the same counts, the results for “NCI-H1563 (lung adenocarcinoma, adherent, top dose 5.12 µM)” are 0.684 and 5.94.
For “NCI-H1568 (lung adenocarcinoma, adherent, top dose 5.12 µM)”, in that order: 0.857 and below 5.29.
On the same counts, the results for “NCI-H1573 (lung adenocarcinoma, adherent, top dose 5.12 µM)” are 0.868 and 5.35.
On to “NCI-H1581 (large cell lung carcinoma, semi-adherent, top dose 5.12 µM)”, for which the AUC turned out to be 0.929 and the negative logarithm of the IC50 (pIC50) was below 5.29.
On to “NCI-H1623 (lung adenocarcinoma, adherent, top dose 5.12 µM)”, for which the AUC was determined as 0.969 and the pIC50 is below 5.29.
For “NCI-H1648 (lung adenocarcinoma, adherent, top dose 5.12 µM)”, in that order: 0.535 and 6.40.
Consider “NCI-H1651 (lung adenocarcinoma, adherent, top dose 5.12 µM)”, for which the AUC worked out at 0.984 and the pIC50 is below 5.29.
For “NCI-H1666 (lung adenocarcinoma, semi-adherent, top dose 5.12 µM)”, in that order: 0.823 and 5.47.
For “NCI-H1688 (small cell lung carcinoma, adherent, top dose 5.12 µM)”, in that order: 0.919 and below 5.29.
As for “NCI-H1693 (lung adenocarcinoma, adherent, top dose 5.12 µM)”, the AUC was 0.829 and the pIC50 was below 5.29.
For “NCI-H1694 (small cell lung carcinoma, suspension, top dose 5.12 µM)”, in that order: 0.822 and 5.53.
Take “NCI-H1703 (lung adenocarcinoma, adherent, top dose 5.12 µM)”: the AUC came to 0.68 and the pIC50 was 5.94.
For “NCI-H1734 (lung adenocarcinoma, adherent, top dose 5.12 µM)”, in that order: 0.826 and 5.45.
With “NCI-H1755 (lung adenocarcinoma, adherent, top dose 5.12 µM)”, the AUC was 0.356 and the pIC50 was 6.92.
For the cell line “NCI-H1770 (non-small cell lung carcinoma, suspension, top dose 5.12 µM)”, the AUC was 0.943 and the pIC50 was below 5.29.
On the same counts, the results for “NCI-H1781 (lung adenocarcinoma, adherent, top dose 5.12 µM)” are 0.856 and 5.39.
As to “NCI-H1792 (lung adenocarcinoma, adherent, top dose 5.12 µM)”, the AUC turned out to be 0.656 and the pIC50 was 6.08.
Take “NCI-H1793 (lung adenocarcinoma, adherent, top dose 5.12 µM)”: the AUC worked out at 0.788 and the negative logarithm of the IC50 (pIC50) is 5.48.
For “NCI-H1836 (small cell lung carcinoma, suspension, top dose 5.12 µM)”, in that order: 0.894 and below 5.29.
For “NCI-H1838 (lung adenocarcinoma, adherent, top dose 5.12 µM)”, in that order: 0.925 and below 5.29.
“NCI-H1869 (lung squamous cell carcinoma, adherent, top dose 5.12 µM)”: the AUC was determined as 0.748 and the pIC50 was 5.74.
In the case of “NCI-H1876 (small cell lung carcinoma, adherent, top dose 5.12 µM)”, the AUC amounted to 0.739 and the pIC50 is 5.81.
On the same counts, the results for “NCI-H1915 (large cell lung carcinoma, adherent, top dose 5.12 µM)” are 0.945 and below 5.29.
Turning to “NCI-H1944 (lung adenocarcinoma, adherent, top dose 5.12 µM)”, the AUC came out at 0.657 and the pIC50 was 6.05.
On to “NCI-H1975 (lung adenocarcinoma, adherent, top dose 5.12 µM)”, for which the AUC is 0.71 and the pIC50 was 5.86.
Regarding “NCI-H1993 (lung adenocarcinoma, adherent, top dose 5.12 µM)”, the AUC worked out at 0.73 and the pIC50 is 5.74.
For “NCI-H2009 (lung adenocarcinoma, adherent, top dose 5.12 µM)”, in that order: 0.969 and below 5.29.
On the same counts, the results for “NCI-H2023 (lung adenocarcinoma, adherent, top dose 5.12 µM)” are 0.869 and below 5.29.
Consider “NCI-H2029 (small cell lung carcinoma, adherent, top dose 5.12 µM)”, for which the AUC came out at 0.913 and the negative-log IC50 (pIC50) was below 5.29.
On the same counts, the results for “NCI-H2030 (lung adenocarcinoma, adherent, top dose 5.12 µM)” are 0.803 and 5.53.
On to “NCI-H2052 (mesothelioma, adherent, top dose 5.12 µM)”, for which the AUC turned out to be 0.952 and the pIC50 is below 5.29.
For “NCI-H2081 (small cell lung carcinoma, suspension, top dose 5.12 µM)”, in that order: 0.771 and 5.68.
As for “NCI-H2085 (lung adenocarcinoma, adherent, top dose 5.12 µM)”, the AUC was 0.474 and the pIC50 is 6.57.
With “NCI-H2087 (lung adenocarcinoma, semi-adherent, top dose 5.12 µM)”, the AUC was 0.751 and the pIC50 is 5.74.
Regarding “NCI-H2110 (non-small cell lung carcinoma, adherent, top dose 5.12 µM)”, the AUC turned out to be 0.887 and the pIC50 was below 5.29.
With “NCI-H2122 (lung adenocarcinoma, adherent, top dose 5.12 µM)”, the AUC amounted to 0.923 and the pIC50 is below 5.29.
On the same counts, the results for “NCI-H2135 (non-small cell lung carcinoma, adherent, top dose 5.12 µM)” are 0.76 and 5.76.
On to “NCI-H2141 (small cell lung carcinoma, suspension, top dose 5.12 µM)”, for which the AUC is 0.798 and the pIC50 was 5.63.
In the case of “NCI-H2170 (lung squamous cell carcinoma, adherent, top dose 5.12 µM)”, the AUC was 0.935 and the pIC50 is below 5.29.
For “NCI-H2171 (small cell lung carcinoma, suspension, top dose 5.12 µM)”, the AUC turned out to be 0.866 and the pIC50 was 5.45.
In the case of “NCI-H2172 (non-small cell lung carcinoma, adherent, top dose 5.12 µM)”, the AUC is 0.869 and the pIC50 was below 5.29.
On the same counts, the results for “NCI-H2196 (small cell lung carcinoma, adherent, top dose 5.12 µM)” are 0.798 and 5.59.
For “NCI-H2227 (small cell lung carcinoma, semi-adherent, top dose 5.12 µM)”, the AUC is 0.761 and the pIC50 was 5.69.
On to “NCI-H2228 (lung adenocarcinoma, adherent, top dose 5.12 µM)”, for which the AUC came to 0.717 and the pIC50 was 5.74.
On the same counts, the results for “NCI-H2291 (lung adenocarcinoma, adherent, top dose 5.12 µM)” are 0.978 and below 5.29.
On the same counts, the results for “NCI-H2342 (lung adenocarcinoma, adherent, top dose 5.12 µM)” are 0.885 and below 5.29.
On the same counts, the results for “NCI-H2347 (lung adenocarcinoma, adherent, top dose 5.12 µM)” are 0.795 and 5.53.
In the case of “NCI-H2405 (lung adenocarcinoma, adherent, top dose 5.12 µM)”, the AUC turned out to be 0.772 and the pIC50 was 5.66.
Take “NCI-H2444 (non-small cell lung carcinoma, adherent, top dose 5.12 µM)”: the AUC amounted to 0.963 and the pIC50 was below 5.29.
On to “NCI-H2452 (mesothelioma, adherent, top dose 5.12 µM)”, for which the AUC stood at 0.984 and the pIC50 was below 5.29.
On the same counts, the results for “NCI-H3122 (lung adenocarcinoma, adherent, top dose 5.12 µM)” are 0.752 and 5.76.
On the same counts, the results for “NCI-SNU-1 (stomach, suspension, top dose 5.12 µM)” are 0.73 and 5.83.
On the same counts, the results for “NCI-SNU-5 (stomach, suspension, top dose 5.12 µM)” are 0.892 and below 5.29.

In general, pIC50 refers to −log10 of the IC50, conventionally taken in molar units.
